# Test results as given in article PMC4336329 (PLoS ONE, 2015).
# Among all 310,000 compounds or so, about 2,200 (0.71%) showed an effect of 50% or more. The effect is printed as a negative number. Some of the results follow.
# Biological target: human ether-à-go-go-related gene (hERG) potassium channel (human, UniProt Q12809)
# Assay: primary screen, population patch clamp on CHO cells stably expressing hERG
# Sequence of human ether-à-go-go-related gene (hERG) potassium channel (Q12809 whole entry, looked up): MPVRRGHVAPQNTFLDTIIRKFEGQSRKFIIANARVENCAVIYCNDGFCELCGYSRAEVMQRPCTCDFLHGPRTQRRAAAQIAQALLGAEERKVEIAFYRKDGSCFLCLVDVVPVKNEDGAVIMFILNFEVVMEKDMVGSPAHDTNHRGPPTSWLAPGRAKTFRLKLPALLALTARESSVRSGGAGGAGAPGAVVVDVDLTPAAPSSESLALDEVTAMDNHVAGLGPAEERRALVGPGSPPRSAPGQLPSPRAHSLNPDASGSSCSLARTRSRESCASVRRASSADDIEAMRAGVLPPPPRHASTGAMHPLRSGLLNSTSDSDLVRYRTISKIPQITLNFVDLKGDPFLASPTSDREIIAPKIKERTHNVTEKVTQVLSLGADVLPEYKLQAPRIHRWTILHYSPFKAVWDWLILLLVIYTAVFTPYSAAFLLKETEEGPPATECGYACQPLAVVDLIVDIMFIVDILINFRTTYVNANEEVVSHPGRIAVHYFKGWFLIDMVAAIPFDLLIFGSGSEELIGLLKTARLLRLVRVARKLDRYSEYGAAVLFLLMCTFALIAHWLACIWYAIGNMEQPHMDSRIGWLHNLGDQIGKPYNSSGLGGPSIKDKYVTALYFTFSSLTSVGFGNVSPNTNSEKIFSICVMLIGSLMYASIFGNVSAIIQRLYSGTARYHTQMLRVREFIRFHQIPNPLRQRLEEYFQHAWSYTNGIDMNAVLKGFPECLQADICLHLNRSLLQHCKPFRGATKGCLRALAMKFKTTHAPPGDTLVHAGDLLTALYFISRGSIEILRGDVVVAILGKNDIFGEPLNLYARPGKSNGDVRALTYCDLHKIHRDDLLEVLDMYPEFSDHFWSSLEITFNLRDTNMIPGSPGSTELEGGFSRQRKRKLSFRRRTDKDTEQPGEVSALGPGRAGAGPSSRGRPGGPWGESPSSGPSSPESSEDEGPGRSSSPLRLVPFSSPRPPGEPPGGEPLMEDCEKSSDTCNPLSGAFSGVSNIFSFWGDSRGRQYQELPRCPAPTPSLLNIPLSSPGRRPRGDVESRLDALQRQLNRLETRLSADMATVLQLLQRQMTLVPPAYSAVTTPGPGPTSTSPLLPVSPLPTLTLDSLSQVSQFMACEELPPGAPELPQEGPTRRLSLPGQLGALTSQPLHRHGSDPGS
row,SMILES,"hERG current change (%, negative = inhibition) at 1uM [%]"
1,CC1(C)Cc2c(C#N)c(SCCOc3ccccc3)nc(N3CCOCC3)c2CO1,7.33
2,CC(=O)C(Sc1nc(N2CCOCC2)nc(N2CCOCC2)n1)C(=O)Nc1ccccc1 (stereo not shown),6.79
3,O=C(/C=C/c1ccc(OCCCF)cc1)NCc1ccc(Cl)c(Cl)c1,7.75
4,CC(=O)c1c(C)oc2ccc(NS(=O)(=O)c3cccs3)cc12,11
5,COc1ccccc1CNC(=O)C(=O)c1cn(CC(=O)N2CCOCC2)c2ccccc12,18
6,Cc1c(NC(=O)COC(=O)CCc2c[nH]c3ccccc23)c(=O)n(-c2ccccc2)n1C,-4.93
7,O=C(NCc1ccccc1)c1sc(=S)n2c1[nH]c(=O)c1ccccc12,-4.75
8,O=C(N/N=C/c1cccnc1)c1ccc2c(c1)OCCO2,-5.82
9,COc1ccc(Cc2nn[nH]n2)cc1,0.0315
10,CCOC(=O)c1c(P(=O)(N2CCOCC2)N2CCOCC2)noc1N,2.4
11,COc1ccccc1C1CC(c2cccs2)=NN1C(=O)CCC(=O)O (stereo not shown),9.5
12,Cn1c(COc2ccc(Br)cc2)nnc1SC1CCc2ccccc2C1=O (stereo not shown),10.7
13,Cc1ccc(C2CC(=O)C(C=NCCN3CCN(C(=S)Nc4ccc(F)cc4)CC3)=C(O)C2)cc1 (stereo not shown),-7.16
14,CCN1C(=O)CC(N2CCN(C(c3ccccc3)c3ccccc3)CC2)C1=O (stereo not shown),3.52
15,NC(=O)C1CCN(C(=O)COc2cccc3cccnc23)CC1,13.2
16,C=Cc1ccc(C2=CC(=O)C[C@H](c3ccc(OC)cc3)C2)cc1,14.5
17,Cc1ccc(NCc2nnc(SCCN3CCCCC3)n2CC2CCCO2)cc1Cl (stereo not shown),-59.1
18,Cc1ccccc1Nc1n[nH]c(C)c1[N+](=O)[O-],12.3
19,CC(=O)c1ccc(N2CCN(C(=O)c3cc4c(s3)CCCC4)CC2)cc1,-1.15
20,CCOC(=O)C1=C(C)N=c2s/c(=C3\C(=O)Nc4ccccc43)c(=O)n2C1c1ccc2c(c1)OCO2 (stereo not shown),4.52
21,N/C(CCS(=O)(=O)c1ccc(Cl)cc1)=N\OC(=O)c1ccccc1C(F)(F)F,-5.27
22,C/C(N)=C(/C#N)C(=O)CSc1ccccc1F,18

row,SMILES,"hERG current change (%, negative = inhibition) at 1uM [%]"
1,N#Cc1c(N)n(C2CCCCC2)c2nc3ccccc3nc12,14.8
2,CC1(C)CC(=O)C(C(C2=C(O)CC(C)(C)CC2=O)c2ccc(Cl)c([N+](=O)[O-])c2)C(=O)C1 (stereo not shown),-5.61
3,Cc1sc(N)c(C#N)c1C,4.65
4,CC1CCCCN1C(=O)Cn1cc(C=C2C(=O)N(C)C(=O)N(C)C2=O)c2ccccc21 (stereo not shown),8.86
5,O=C(C1=C[C@H](c2ccccc2)C[C@H](OCCCCO)O1)N1CCN(Cc2ccc3c(c2)OCO3)CC1,-8.06
6,O=C(CN1CC[C@@]2(O)CCCC[C@H]2[C@@H]1c1ccc(F)cc1)NCc1ccco1,3.24
7,CCn1cc(CN2CCC(n3nccc3NC(=O)c3cccc(F)c3)CC2)c(C)n1,14.2
8,CC(=O)N1CCN(c2ccccc2NC(=O)COc2ccccc2C)CC1,14.7
9,COc1ccc(/C=C/C(=O)O)cc1S(=O)(=O)N1CCC(Cc2ccccc2)CC1,14.9
10,O=C1NC(=S)S/C1=C\c1ccc(SCc2ccco2)o1,-3.45
11,O=C(O)c1ccn(Cn2cnc3ccccc32)n1,4.47
12,CCOC(=O)c1c(C)[nH]c(C)c1S(=O)(=O)N1CCC(c2ccccc2)C1 (stereo not shown),12.5
13,Cc1ccc(NC(=O)c2cccs2)cc1NC(=O)c1ccco1,10.1
14,Nc1c(C(=O)OC2CCCCC2)c2nc3ccccc3nc2n1CC1CCCO1 (stereo not shown),-13
15,NS(=O)(=O)OCCCCCc1ccccc1,16.1
16,Cc1ccnc2nc(C(=O)OCCOc3ccc(Cl)cc3)nn12,-2.12
17,COCCOC(=O)c1[nH]c2c(c1C)C(=O)CC(c1ccc(OC)cc1)C2 (stereo not shown),9.46
18,COc1ccc(/C(C)=N/N=C(N)N)c(OC)c1,-1.56
19,COc1ccc(C(=O)NC(=S)N2CC(C)OC(C)C2)cc1OC (stereo not shown),7.44
20,O=C(Nc1ccc2c(c1)C(=O)OC2)c1ccc(C(F)(F)F)cc1,13.8
21,Cc1ccc(/C=C2/C(=O)NC(=O)N(Cc3ccc(F)cc3)C2=O)o1,15.7
22,Cn1cc(CNC(=O)CC2C(=O)NCCN2CC(C)(C)C)cn1 (stereo not shown),11.7

row,SMILES,"hERG current change (%, negative = inhibition) at 1uM [%]"
1,C=CCNC(=O)NC(=S)c1ccccc1,3.7
2,COC(=O)c1sccc1NC(=O)Nc1cc(C)cc(C)c1,20.7
3,COCc1c(C(=O)NC2CCCCC2)sc2cccc(F)c12,4.68
4,C/C(=N\NC(=S)Nc1ccccc1C)C1Cc2ccccc2C(=O)O1 (stereo not shown),-0.045
5,Cc1cccc(OCC2Cn3c(nc4c3c(=O)[nH]c(=O)n4C)O2)c1 (stereo not shown),17.6
6,O=C(O)CSC1CC(=O)N(c2ccc(Cl)cc2)C1=O (stereo not shown),15.8
7,COc1ccc(C(C)=O)cc1COC(=O)c1cnc(C)cn1,17.6
8,CN(Cc1cccs1)C(=O)CCc1ccc(S(=O)(=O)N2CCOCC2)cc1,0.097
9,Cc1noc(C)c1COc1ccc(C(=O)OC(C)C(=O)Nc2ccc(S(=O)(=O)N3CCOCC3)cc2)cc1 (stereo not shown),15
10,O=C1CNC(=O)/C1=C\N1CCN(C(c2ccccc2)c2ccccc2)CC1,5.02
11,Cc1cc(NC(=O)c2cc([N+](=O)[O-])cc([N+](=O)[O-])c2)no1,14.2
12,CC(C)OCC1Cn2c(nc3c2c(=O)n(C)c(=O)n3C)O1 (stereo not shown),15.5
13,Cc1cc(SCC(=O)NCCCN2CCCC2=O)nc2ccccc12,10.3
14,O=C(c1ccc(Cl)cc1)N1CCC(c2nc(-c3cccs3)no2)CC1,1.98
15,O=C(Nc1ccc(NC(=O)c2ccccc2Cl)cc1)c1cccnc1,16.6
16,COc1cccc(-c2nnc(SCC(N)=O)n2-c2ccc(Cl)cc2)c1,-1.77
17,O=C(O)CC1=C(O)C(=O)N(c2ccccc2)C1c1ccccc1 (stereo not shown),13.6
18,CN(C)CCOC(=O)c1cn(Cc2ccccc2)c2ccccc12.Cl,-18.4
19,CCCC(=O)N(C)c1nnc(-c2ccc(OC)cc2)s1,14.2
20,NS(=O)(=O)c1ccc(CCNC(=O)C2CCCN2C(=O)OCc2ccccc2)cc1 (stereo not shown),12.4
21,Cc1cccc2cc(C#N)c(NCCCn3ccnc3)nc12,-11.1
22,CN1C(=O)/C(=C/c2ccccc2OCc2ccccc2F)NC1=S,13.8

row,SMILES,"hERG current change (%, negative = inhibition) at 1uM [%]"
1,COc1ccc(NS(=O)(=O)c2ccc(C)c(NC(=O)c3ccc(C)c(S(=O)(=O)N4CCOCC4)c3)c2)cc1,9.07
2,CCOc1ccc(CNCCN2CCCC2)cc1.O=C(O)C(=O)O,-18.2
3,CCOc1ccc(C(=O)N2CCN(c3cccc(Cl)c3)CC2)cc1,-20.3
4,Cc1[nH]c2ccccc2c1/C=C(\C#N)C(=O)NCC1CCCO1 (stereo not shown),10.9
5,COc1ccc(Cn2c(=O)[nH]c3cc(C(=O)N4CCN(Cc5ccccc5)CC4)ccc3c2=O)cc1,8.77
6,Cc1ccc(SCc2nc3ccccc3[nH]2)cc1,-0.976
7,COc1ccc(-c2cn3c(C)c(C(=O)N4CCc5ccccc5C4)sc3n2)cc1,11.5
8,COc1ccccc1N1CCN(S(=O)(=O)c2ccc3c(c2)oc(=O)n3C)CC1,-2.7
9,Cc1ccccc1S(=O)(=O)Nc1ncnc2sccc12,15.8
10,Cn1nnc(NCc2cc(Br)ccc2OCc2ccccc2F)n1,5.37
11,Cc1ccc(C)c(N(CC(=O)NC2CCCC2)C(=O)CCC(=O)Nc2cc(C)on2)c1,14.1
12,Cc1cc(C)cc(NC(=O)C2CCN(C(=O)c3cccs3)CC2)c1,11.6
13,Cc1ccc(S(=O)(=O)N2CCSC2c2ccco2)cc1 (stereo not shown),6.48
14,C=CCc1ccc(OCCn2cccc2C=O)c(OC)c1,-8.16
15,COCCCNC(=O)c1ccc(N(C)S(C)(=O)=O)cc1,10.9
16,CCOC(=O)C1CN(S(=O)(=O)c2ccc(C)cc2)c2cc(S(=O)(=O)CC)ccc2O1 (stereo not shown),-1.2
17,Cc1cc(C)nc(OC(C(=O)O)C(OCCc2ccccc2)(c2ccccc2)c2ccccc2)n1 (stereo not shown),12.1
18,COc1ccc(Br)cc1C1Nc2cccc3cccc(c23)N1,15.4
19,CCc1cccc(NC(=O)C2CCCN(c3ncnc4c3nc3n4CCCCC3)C2)c1 (stereo not shown),-7.04
20,Cc1cc(N2CCN(Cc3nc(-c4ccc(Cl)cc4)oc3C)CC2)cc(C)n1,-57.8
21,COc1ccccc1NC(=S)NNC(=S)Nc1ccc(OC(F)F)cc1,14.8
22,O=C(COc1cccc(C(F)(F)F)c1)N1CCN(c2ccccc2O)CC1,5.44
